# In PubChem BioAssay AID1347165 (National Center for Advancing Translational Sciences (NCATS), 2019):
# Several values for one entry are separate records, joined by “and”; a condition that tells them apart may be missing. Equal values may be shown once. About 5,700 (2.6%) of roughly 220,000 compounds were called active. The inconclusive results got no clear call from the source; some entries with a clear call stand among them for comparison. The call rests on the fitted dose curve; in most records, active means well fitted inhibition curve with a large enough effect; inconclusive means small, poorly fitted or top-dose-only effect; inactive means no such curve, though single readings can be large or run the other way. Potencies of inconclusive entries are doubtful fits and often do not repeat.
# Target: Lysine-specific demethylase 5B (Homo sapiens) (UniProt Q9UGL1)
# Assay: Primary screen for KDM5B Histone Demethylases FDH-coupled qHTS; further: nearly all actives have a fitted effect of over 70% in size; on activity change, negative = inhibition: 0% is about no effect
# Details: FDH-coupled NADH fluorescence (FDH is formaldehyde dehydrogenase); activity change, negative = inhibition: at 57.7 µM (top of the series) unless noted
# Procedure, shortened: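 KDM5BΔAP (200 nM final) in 50 mM HEPES pH 7.5, 0.01% Tween-20 was preincubated 10 min at RT with compound over a concentration range. Substrate mix (H3K4me3 12.5 µM, α-KG 25 µM, Fe²⁺, ascorbate, NAD⁺, FDH) was added, and NADH fluorescence change over 30 min gave dose-response curves.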
# Potency means the concentration at half of the fitted maximal effect; tags describe the fitted curve by direction and shape.
# UniProt Q9UGL1, sequence (Q9UGL1 whole entry, looked up): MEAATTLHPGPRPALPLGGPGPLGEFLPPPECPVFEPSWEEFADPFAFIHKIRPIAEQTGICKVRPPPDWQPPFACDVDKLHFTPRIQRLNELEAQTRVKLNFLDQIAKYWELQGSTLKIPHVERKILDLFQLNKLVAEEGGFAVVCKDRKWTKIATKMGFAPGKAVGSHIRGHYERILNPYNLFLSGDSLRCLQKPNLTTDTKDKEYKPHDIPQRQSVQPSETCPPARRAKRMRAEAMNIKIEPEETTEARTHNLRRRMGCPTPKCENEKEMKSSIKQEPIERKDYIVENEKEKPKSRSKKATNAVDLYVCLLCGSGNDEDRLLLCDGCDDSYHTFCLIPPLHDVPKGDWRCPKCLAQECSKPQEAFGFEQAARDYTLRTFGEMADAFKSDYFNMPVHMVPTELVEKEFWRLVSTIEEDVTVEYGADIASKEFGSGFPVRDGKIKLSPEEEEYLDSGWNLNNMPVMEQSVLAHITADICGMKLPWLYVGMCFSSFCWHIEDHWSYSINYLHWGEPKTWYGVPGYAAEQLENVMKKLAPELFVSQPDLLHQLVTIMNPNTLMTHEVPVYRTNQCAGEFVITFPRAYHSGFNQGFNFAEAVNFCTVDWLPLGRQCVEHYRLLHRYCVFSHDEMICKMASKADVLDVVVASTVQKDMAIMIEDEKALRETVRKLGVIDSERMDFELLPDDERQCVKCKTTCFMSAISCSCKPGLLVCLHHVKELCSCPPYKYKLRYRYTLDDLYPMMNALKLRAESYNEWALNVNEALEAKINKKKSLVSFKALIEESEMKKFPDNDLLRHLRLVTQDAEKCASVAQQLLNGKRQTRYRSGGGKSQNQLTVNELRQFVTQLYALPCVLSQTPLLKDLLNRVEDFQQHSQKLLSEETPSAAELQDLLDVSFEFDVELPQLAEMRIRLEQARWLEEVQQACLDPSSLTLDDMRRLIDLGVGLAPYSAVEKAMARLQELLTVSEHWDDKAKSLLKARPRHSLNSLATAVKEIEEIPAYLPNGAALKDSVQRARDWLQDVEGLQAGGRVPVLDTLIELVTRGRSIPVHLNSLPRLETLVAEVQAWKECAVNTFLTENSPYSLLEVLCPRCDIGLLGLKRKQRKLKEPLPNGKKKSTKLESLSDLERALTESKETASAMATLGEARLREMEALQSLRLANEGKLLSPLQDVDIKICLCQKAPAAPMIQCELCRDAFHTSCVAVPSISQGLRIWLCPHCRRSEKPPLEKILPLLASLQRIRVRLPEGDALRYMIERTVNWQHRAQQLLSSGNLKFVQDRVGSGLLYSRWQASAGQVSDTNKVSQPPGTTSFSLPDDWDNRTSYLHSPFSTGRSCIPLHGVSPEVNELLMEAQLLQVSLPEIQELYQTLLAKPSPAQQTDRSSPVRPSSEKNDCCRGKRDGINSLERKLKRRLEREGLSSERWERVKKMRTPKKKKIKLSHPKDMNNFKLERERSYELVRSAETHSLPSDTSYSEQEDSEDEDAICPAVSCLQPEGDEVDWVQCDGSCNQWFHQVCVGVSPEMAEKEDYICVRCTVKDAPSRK
SMILES,Potency,"activity change, negative = inhibition"
Cn1c(CNC(=O)C2(Cc3ccccc3)CCCCC(=O)N2)nc2ccccc21 (stereo not drawn),active: 17.8 µM,–
Cc1ccc(C(C)C)c(OCC(=O)Nc2cccc(-c3nc4ncccc4o3)c2)c1,"inconclusive: 35.5 µM [inhibitor, partial curve, poor fit]",–
COc1ccc2cnn(CC(=O)Nc3ccc(Br)cc3)c(=O)c2c1OC,"inconclusive: 39.8 µM [inhibitor, single point]",–
Cc1ccccc1-c1noc(CNCc2nc3ccc(Cl)cc3[nH]2)n1,inactive,–
Cc1ccc(-c2cnc(-c3ccccc3C(=O)NC(C)C)o2)cc1,"inconclusive: 20 µM [inhibitor, partial curve, poor fit]",–
Fc1cccc(NC2CCCN(Cc3cccn3-c3nccs3)C2)c1 (stereo not drawn),inactive,–
Cc1cccc(C(=O)NC2CCCCCC2)n1,inactive,–
CC(C)(C)c1ccc(O)c(NC(=O)c2cc[n+]([O-])cc2)c1,inactive,–
Cc1ccc(-c2nnc(SC3=CS(=O)(=O)c4ccccc43)o2)cc1,inactive,–
CCCN1CCc2nc(SCC(=O)Nc3ccc(C)c(Cl)c3)[nH]c(=O)c2C1,"inconclusive: 15.8 µM [inhibitor, single point]",–
CN(C)c1ccc(C2CC(c3c(O)n(C4CCCCC4)c(=O)[nH]c3=O)=Nc3ccccc3S2)cc1 (stereo not drawn),"inconclusive: 28.2 µM [inhibitor, partial curve, poor fit]",–
Cc1ccc(-c2cc(Nc3ccccc3)nc(C)n2)cc1,"inconclusive: 28.2 µM [inhibitor, single point]",–
O=C(CCc1cc(Cl)no1)N1CCCC(c2nc(C3CCOCC3)no2)C1 (stereo not drawn),"inconclusive: 17.8 µM [inhibitor, partial curve]",–
COc1ccc(NC(=O)C2=C(C)Nc3c(C(=O)Nc4ccc(C)cc4)cnn3C2c2cc(OC)ccc2OC)cc1 (stereo not drawn),"inconclusive: 39.8 µM [inhibitor, single point]",–
COc1cccc(NC(=O)Cn2c(=O)n(Cc3ccccc3)c(=O)c3c2c2cc(C)ccc2n3C)c1,"inconclusive: 15.8 µM [inhibitor, partial curve, poor fit]",–
CCN(CC)Cc1cc(-c2nc(C3CCOC3)no2)c(-c2ccccc2)o1 (stereo not drawn),active: 25.1 µM,–
COc1ccc(Cl)cc1C(=O)NCc1nnc2ccc(-c3ccccc3)nn12,active: 25.1 µM,–
C#Cc1cccc(NC(=O)Cc2ccc(OC)cc2)c1,inactive,–
COc1ccc(S(=O)(=O)NC[C@@H]2C=C(C)[C@H](CC(=O)N3CCN(C)CC3)C[C@H]2C(C)C)cc1,inactive,–
CCCc1nc(NCc2ccncc2)c(C#N)c2c1CCCC2,inactive,–
Cc1ccccc1-c1nnn(CC(=O)N2N=C(c3cccs3)CC2c2cccs2)n1 (stereo not drawn),"inconclusive: 10 µM [inhibitor, partial curve, poor fit]",–
CC(C)C[C@@H]1N[C@H](C(=O)NC2CCC2)Cc2cn(Cc3ccncc3)c3cccc1c23,"inconclusive: 25.1 µM [inhibitor, partial curve]",–
CCC(=O)N1CCc2nc(N3CCN(Cc4cccnc4)CC3)sc2C1,"inconclusive: 22.4 µM [inhibitor, partial curve]",–

SMILES,Potency,"activity change, negative = inhibition"
O=C(NC(c1ccccc1)c1ccccc1)C12CC3CC(CC(O)(C3)C1)C2,inactive,–
CC(Oc1ccc2ccc(=O)oc2c1)C(=O)NC(=O)NC1CCCCC1 (stereo not drawn),"inconclusive: 28.2 µM [inhibitor, single point]",–
CCc1noc(-c2ccn3c(CNC(=O)c4cc(F)ccc4Cl)nnc3c2)n1,active: 28.2 µM,–
O=C(Nc1nccs1)c1ccc2c(c1)OCCN(c1ccccc1)C2,"inconclusive: 56.2 µM [inhibitor, single point]",–
CC(=O)N1CCN(C(=O)c2nc(N)nc3c2CCCC3)CC(O)C1 (stereo not drawn),active: 25.1 µM,–
COc1cc(F)ccc1-c1ccnc2nc(CCc3ccccc3)nn12,active: 25.1 µM,–
CCc1sc(C(=O)N2CCCCC2C)cc1Br (stereo not drawn),inactive,–
COc1cccc(N2C(=O)NC(=NC3CCCCC3)C23CCN(Cc2ccsc2)C3)c1 (stereo not drawn),inactive,–
c1cc(CN2CCOCC2)cc(-c2cnn3ccccc23)c1,active: 31.6 µM,–
COc1ccc(Cl)cc1C(=O)NC1CCN(C(=O)c2cc3c(=O)[nH]c(C)cn3n2)CC1,"inconclusive: 31.6 µM [inhibitor, partial curve, poor fit]",–
CCN1CCN(C(=O)c2ccc(-c3nnc4ccc(NC(=O)C5CCC5)cn34)cc2)CC1,active: 20 µM,–
COc1ccc(C2C=C(c3ccccc3)Nc3nc(NS(=O)(=O)c4ccc(C)cc4)nn32)cc1 (stereo not drawn),"inconclusive: 8.91 µM [inhibitor, partial curve, poor fit]",–
CCn1cc(-c2nc3c([nH]2)CC(C)(C)CNC3=O)cn1,inactive,–
CCCCNC(=O)C(C#N)c1nc2ccccc2nc1OC(C)C (stereo not drawn),"inconclusive: 25.1 µM [inhibitor, partial curve, poor fit]",–
COc1cc(OC)c(OC)cc1CN1CCc2nc(N3CCN(c4ccccc4F)CC3)ncc2C1,"inconclusive: 3.16 µM [inhibitor, partial curve, poor fit]",–
CCOC(=O)c1ccc(Oc2c(C)oc3cc(OC(=O)c4ccc5c(c4)OCO5)ccc3c2=O)cc1,"inconclusive: 11.2 µM [inhibitor, partial curve, poor fit]",–
N#CCOC(=O)c1cc(-c2cccs2)nc2ccccc12,"inconclusive: 20 µM [inhibitor, partial curve, poor fit]",–
NC(=O)Cc1c[nH]c2ncc(-c3ccccc3C(F)(F)F)cc12,"inconclusive: 39.8 µM [inhibitor, single point]",–
COc1ccc(Nc2c(-c3ccco3)nc3cccc(C)n23)cc1,"inconclusive: 28.2 µM [inhibitor, partial curve, poor fit]",–
Cc1nc(N2CCC(NC(=O)c3ccc(F)cc3Cl)CC2)cc(C(F)(F)F)n1,inactive,–
Cc1cc(-c2nc3ncccc3[nH]2)c(C)[nH]1,"inconclusive: 79.4 µM [inhibitor, partial curve, poor fit] and inconclusive: 31.6 µM [inhibitor, partial curve, poor fit]",–
O=C(Cc1ccc(Cl)cc1)NCc1nnc2c(-c3nc(C4CC4)no3)cccn12,active: 28.2 µM,–
COc1ccc(-c2nccc3c(=O)cc(N(C)c4ccccc4)oc23)cn1,inactive,–

SMILES,Potency,"activity change, negative = inhibition"
COc1ccc(CNC2CCCC2)c(OC)c1OC,inactive,–
CSCCNC(=O)C1CCCN1c1nc2ncccc2o1 (stereo not drawn),"inconclusive: 35.5 µM [inhibitor, single point]",–
C[S+](=O)([O-])N1CCN([S+](=O)([O-])c2ccc(Cl)nc2)C(=O)C1,"inconclusive: 79.4 µM [inhibitor, partial curve, poor fit]",–
N#CC1=C(N)Oc2c(ccc3ccccc23)C1c1ccc2c(c1)OCO2 (stereo not drawn),"inconclusive: 28.2 µM [inhibitor, partial curve, poor fit]",–
Cc1nn2c(c1-c1ccccc1-c1ccccc1)N(CCC(C)C)CCC2,active: 6.31 µM,–
CC(C)CCN1CCN(c2nc3c(c(=O)[nH]c(=O)n3C)n2Cc2ccc(Cl)cc2)CC1,inactive,–
CCOC(=O)CNC(=O)CC(c1cc(OC)c(OC)c(OC)c1)N1Cc2ccccc2C1=O (stereo not drawn),inactive,–
Cc1ccc(-c2nnc([C@H]3CCN(Cc4ncc[nH]4)C3)o2)cc1,active: 35.5 µM,–
CCN(CC)c1ccc(C(=O)Nc2ccc3nc(N(CC)CC)cc(C)c3c2)cc1,"inconclusive: 31.6 µM [inhibitor, partial curve, poor fit]",–
O=C(CCc1ncc(-c2ccccc2F)o1)NCC(O)CN1CCOCC1 (stereo not drawn),inactive,–
O[C@@H]1C[C@@H](c2nc(Cc3ccc(F)cc3Cl)no2)N(Cc2ccc(OC(F)(F)F)cc2)C1,"inconclusive: 35.5 µM [inhibitor, partial curve, poor fit]",–
Cc1ccc(S(=O)(=O)c2c(N)n(CCCN(C)C)c3nc4ccccc4nc23)cc1,"inconclusive: 22.4 µM [inhibitor, partial curve, poor fit]",–
COc1ccc2nc(SCC(=O)Nc3ccccc3C(=O)Nc3ccc4c(c3)OCO4)[nH]c2c1,inactive,–
Cc1ccc(C)c(-c2ccc(=O)n(Cc3ccc(F)cc3Cl)n2)c1,"inconclusive: 17.8 µM [inhibitor, partial curve, poor fit]",–
O=S(=O)(Nc1nc2ccccc2nc1NCc1ccc(Cl)cc1)c1cccs1,–,inconclusive: -30.1% [inhibitor]
CCOC(=O)C1CCCN(C(=O)Cn2ncc3c4ccccc4n(Cc4ccc(F)cc4)c3c2=O)C1 (stereo not drawn),"inconclusive: 39.8 µM [inhibitor, single point]",–
CCCn1cnc2c1CN(C(=O)c1ccc(F)cc1)[C@H](C(=O)OC)C2,"inconclusive: 28.2 µM [inhibitor, partial curve, poor fit]",–
O=C(COc1ccccc1)Nc1sc2c(c1C(=O)Nc1ccccc1)CCCCC2,"inconclusive: 20 µM [inhibitor, partial curve, poor fit]",–
CCc1nnc(NC(=O)CSc2nc3c([nH]c4ccccc43)c(=O)n2-c2ccc(C)cc2)s1,"inconclusive: 14.1 µM [inhibitor, partial curve, poor fit]",–
CCc1nc2ccc(C(=O)N3CCN(c4cccc(OC)c4)CC3)cc2nc1CC,"inconclusive: 25.1 µM [inhibitor, single point]",–
NCc1cccc(NC(=O)C2CC2)c1,inactive,–
Cc1cc(=O)oc2cc(OCC(=O)NC3(C#N)CCCCC3)c(Cl)cc12,"inconclusive: 22.4 µM [inhibitor, partial curve, poor fit]",–
